Data taken from publication PMC7819943, “Rice protein-binding microarrays: a tool to detect cis-acting elements near promoter regions in rice”.
The other results are listed elsewhere or left out.

Each sequence was assayed against T1, OsWOX13 (Oryza sativa, UniProt Q5QMM3 1-267) (assay: protein-binding microarray (RPBM); PBS, 2% BSA, 51.3 ng/ul salmon testes DNA, 50 uM zinc acetate, 200 nM TF, 25 C, 1 h; high values mean tight binding). Conditions: protein: recombinant; tags: N-terminal polyhistidine and DsRed monomer fusion (pET32a); label: CyDye5-dUTP incorporated in the synthesized complementary strand; 3' TTTTT single-stranded linker to array surface; dsDNA, one strand shown.
T1 sequence: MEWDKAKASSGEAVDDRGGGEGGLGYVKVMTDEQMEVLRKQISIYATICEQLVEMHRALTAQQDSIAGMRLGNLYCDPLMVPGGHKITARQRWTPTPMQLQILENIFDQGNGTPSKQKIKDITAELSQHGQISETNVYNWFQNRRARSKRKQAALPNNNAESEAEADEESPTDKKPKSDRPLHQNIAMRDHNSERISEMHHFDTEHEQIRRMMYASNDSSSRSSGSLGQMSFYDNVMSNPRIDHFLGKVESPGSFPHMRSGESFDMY
In short: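 Per-feature fluorescence intensity (arbitrary units), read on an Axon 4000B scanner, is the binding signal. Transcription factors carrying an N-terminal polyhistidine tag and DsRed fusion were expressed in E. coli BL21-CodonPlus and purified on Ni–NTA. A custom Agilent array, made double-stranded by primer extension with Cy5-dUTP and blocked with 2% BSA, was incubated with 200 nM protein in PBS, 2% BSA, salmon testes DNA and 50 µM zinc acetate at 25 °C for 1 h and then washed.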

Sequence | binding signal
CACATTAATTAGGTTAATGTACTACTACATCCATTCTAAACGGAGTCACCTAGTGCAG | 16900 fluorescence intensity (a.u.)
TTTGACTGAGGGAGTATATGCATATATATTGGTTATCGGCCGGAGTCACCTAGTGCAG | 11900 fluorescence intensity (a.u.)
TGTGATTGCAGCATAAACCCTGGGAACGTCCGCTGGGGCTCGGAGTCACCTAGTGCAG | 34900 fluorescence intensity (a.u.)
ATTCCTGATTAATCTCCGCAATTCCATCCCGCCGATTCATCGGAGTCACCTAGTGCAG | 19700 fluorescence intensity (a.u.)
TTGCTTGTTTGTGACAGACAGATTGATGTGGAAGAGTAGTCGGAGTCACCTAGTGCAG | 16300 fluorescence intensity (a.u.)
TTGTAATGACAATCACGAGAGAAGAAGCGGAGAGCAAGGACGGAGTCACCTAGTGCAG | 13600 fluorescence intensity (a.u.)
AATAAGACTCCAATCACGTGCAACCGAGATCAGGATACTTCGGAGTCACCTAGTGCAG | 6150 fluorescence intensity (a.u.)
TGAAATTACCTGATGGCACAACACTTCTATTTTGTTGCCTCGGAGTCACCTAGTGCAG | 10300 fluorescence intensity (a.u.)
GAAAATAATTAAGACAGTATATATTACACCTATTTGTGAACGGAGTCACCTAGTGCAG | 5540 fluorescence intensity (a.u.)
ATAATCACACTCAATCTCAGGTTCTTGCTCCACGTACTCCCGGAGTCACCTAGTGCAG | 3520 fluorescence intensity (a.u.)
GATATTGACAGGCAAATACGGAGTAGCTTTCAAAATTTTGCGGAGTCACCTAGTGCAG | 13000 fluorescence intensity (a.u.)
ACAGTAATTTCCTACCAAATTGTAATGTTACTTAGCCAGTCGGAGTCACCTAGTGCAG | 21000 fluorescence intensity (a.u.)
ATTAATGGGCCTGATTTGAATAGTACGTAGTATTTCTGATCGGAGTCACCTAGTGCAG | 18500 fluorescence intensity (a.u.)
ACTGCTAATGAAGAATTGAAGATCAATGCGAATTCTGCTGCGGAGTCACCTAGTGCAG | 5170 fluorescence intensity (a.u.)
TCCTCCTTGACAACCGCTTGACAGTGAATGGGTTCACCTCCGGAGTCACCTAGTGCAG | 3240 fluorescence intensity (a.u.)
ATGCTTGATTTGAAGACATAGGGTTATCGAAATAGGTTTCCGGAGTCACCTAGTGCAG | 18000 fluorescence intensity (a.u.)
TCCTGTTAATTAATTTCTCAAGATTAGTAGTAAAAGGGTACGGAGTCACCTAGTGCAG | 20700 fluorescence intensity (a.u.)
TGATGACCAATCATTTGTTGAGGAGGATTCTTACATATCTCGGAGTCACCTAGTGCAG | 7020 fluorescence intensity (a.u.)
TAATTTAATTGGTTTAAAGGTGTGTATATATTTATATCCGCGGAGTCACCTAGTGCAG | 26800 fluorescence intensity (a.u.)
ATGATTAAATAGGAGAGTGTATTCTTCCTACATCAAAATTCGGAGTCACCTAGTGCAG | 7850 fluorescence intensity (a.u.)
GAATTTTAGATTGAGTTGTTTGCGGGGCTAAGTTCCCTATCGGAGTCACCTAGTGCAG | 21100 fluorescence intensity (a.u.)
GAGAGATTGGATGTGATTATACATAAGCATTAGGGCTAAACGGAGTCACCTAGTGCAG | 36000 fluorescence intensity (a.u.)
TATATATATATATATATATATATAGTGATGCATCTACAAACGGAGTCACCTAGTGCAG | 4300 fluorescence intensity (a.u.)
